Test results from paper PMC6919601, “Identification of Plasmodium dipeptidyl aminopeptidase allosteric inhibitors by high throughput screening” (PLoS ONE, 2019).
Hit rate of the full screen: of about 110,000 compounds, about 230 (0.21%) showed an effect of 50% or more. This is one part of the list.

biological target: DPAP1 (Plasmodium falciparum, UniProt Q8IIJ9); experiment: primary screen, percent inhibition; read by cleavage of a fluorogenic dipeptide substrate; higher = more effect of the substance; parameters: species or system P. falciparum D10 trophozoite lysates; single well
Sequence (Q8IIJ9 whole entry, looked up): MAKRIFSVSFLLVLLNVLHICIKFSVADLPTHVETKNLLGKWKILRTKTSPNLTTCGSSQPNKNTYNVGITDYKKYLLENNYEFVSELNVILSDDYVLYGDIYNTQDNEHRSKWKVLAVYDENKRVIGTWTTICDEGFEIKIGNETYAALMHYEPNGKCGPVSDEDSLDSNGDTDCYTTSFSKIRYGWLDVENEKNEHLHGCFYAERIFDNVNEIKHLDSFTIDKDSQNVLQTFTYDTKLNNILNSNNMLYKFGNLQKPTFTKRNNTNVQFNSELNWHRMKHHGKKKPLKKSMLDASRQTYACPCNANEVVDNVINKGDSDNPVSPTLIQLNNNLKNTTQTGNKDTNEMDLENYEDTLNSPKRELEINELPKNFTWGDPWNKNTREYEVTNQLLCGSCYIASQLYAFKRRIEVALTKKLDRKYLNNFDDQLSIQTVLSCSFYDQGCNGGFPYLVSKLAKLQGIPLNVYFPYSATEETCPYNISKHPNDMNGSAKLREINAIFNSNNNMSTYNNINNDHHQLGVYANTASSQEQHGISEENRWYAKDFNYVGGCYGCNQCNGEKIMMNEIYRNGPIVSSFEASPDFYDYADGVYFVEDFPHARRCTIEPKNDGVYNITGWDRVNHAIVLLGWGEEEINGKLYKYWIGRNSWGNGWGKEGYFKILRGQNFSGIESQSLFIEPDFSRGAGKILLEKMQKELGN
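Note: 30 min substrate incubation versus DMSO and 10 µM JCP410 controls.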

Row | SMILES | % Inhibition @ 10 uM
1 | NC1=NC(=O)/C(=C/c2ccc(Cl)cc2Cl)S1 | 10.4%
2 | CCS(=O)(=O)C1=NN2C(=N)/C(=C\c3cc(C)n(-c4ccc(F)cc4)c3C)C(=O)N=C2S1 | -3.35%
3 | Cc1nnc2c(NCC(C)c3ccccc3)nc3ccccc3n12 (stereo not shown) | 2.89%
4 | COc1ccc(Oc2ccc(N3C(=O)C4C5CCC(C5)C4C3=O)cc2)cc1 (stereo not shown) | -2.19%
5 | O=C(NCC1(c2ccccc2)CCOCC1)C1(c2ccccc2)CCOCC1 | -7%
6 | Nc1nonc1-c1nc2ccccc2n1CC(=O)NCc1ccc(F)cc1 | 0.596%
7 | Cc1cc(C)n(-c2nc3c(c(=O)[nH]c(=O)n3C)n2CCOc2ccccc2)n1 | 8.18%
8 | COc1ccc(C(=O)NCCC2=CCCCC2)cc1 | -10.9%
9 | O=C(CC12CC3CC(C1)CC(CC(=O)N1CCCCC1)(C3)C2)N1CCCCC1 | 4.15%
10 | O=C(Cn1nc(C(F)(F)F)cc1C1CC1)Nc1ccc(F)cc1F | -6.67%
11 | CCS(=O)(=O)c1nc(S(=O)(=O)c2ccc(C)cc2)c(NCCc2ccccc2OC)s1 | -4.04%
12 | COc1cc(C2NC(=O)NC(c3ccccc3)=C2C(C)=O)c(Cl)cc1OCc1ccccc1 (stereo not shown) | 3.19%
13 | COCCNC(=O)COc1ccc(S(=O)(=O)N2CCCC2)cc1 | -5.56%
14 | CCOC(=O)C1C(=O)C=C(c2ccccc2)CC1c1ccccc1 (stereo not shown) | 0.634%
15 | Cc1onc(-c2ccccc2Cl)c1C(=O)N1CCN(c2ccc(F)cc2)CC1 | 1.8%
16 | O=C(NCCc1ccccc1)c1ccc(CS(=O)(=O)Cc2ccc(Cl)cc2)o1 | 0.387%
17 | CCOc1ccc(CNc2nn3nnnc3c3ccccc23)cc1OC | 2.02%
18 | COc1ccc(-c2nnc(-c3ccc(N(C)C)cc3)o2)cc1 | 7.37%
19 | C/C(=C\c1ccc(C)o1)C(=O)c1c(C)cc(C)nc1O | 6.91%
20 | CC(=O)CS(=O)(=O)c1ccc(Br)cc1 | 1.38%
21 | COc1cccc(-c2noc(COc3ccccc3)n2)c1 | -0.671%
22 | CCn1c2c(c(=N)c3c1CCC3)CCC2 | 4.01%

Row | SMILES | % Inhibition @ 10 uM
23 | Cc1cc(Cc2cc(C)c3nc(N)sc3c2)cc2sc(N)nc12 | 20.4%
24 | COc1ccc(OCCCn2cnc3ccccc3c2=O)cc1 | -0.641%
25 | CCc1ccc(CNC(=O)C2CCCN(c3nnc(-n4c(C)ccc4C)s3)C2)cc1 (stereo not shown) | -4.15%
26 | O=C(CN(Cc1ccc(Cl)cc1)S(=O)(=O)c1ccccc1)Nc1ccccc1 | -3.49%
27 | Nc1c(O)nc2ccc(O)c3c2c1-c1ccccc1C3=O | -2.2%
28 | CCN1CCC(NC2CCCCCC2)CC1 | 3.44%
29 | CCc1nnc(SCc2ccccn2)c2cc3sc(C)cc3n12 | -5.97%
30 | CCc1c(C(=O)NC2CCCc3ccccc32)[nH]c(C)c1C(C)=O (stereo not shown) | -3.09%
31 | CC1=NC(C)=C(C(=O)OC(C)C)C(c2cccs2)/C1=C(\O)OC(C)C (stereo not shown) | 13.6%
32 | COCc1cc(C)nc(N2CCOCC2)c1C#N | 33.4%
33 | COc1cccc(C2C3=C(O)CC(C)(C)CC3=Nc3nc(SCc4cccnc4)nc(O)c32)c1 (stereo not shown) | 7.83%
34 | CCOC(=O)C1=C(CN(CCOC)Cc2ccco2)NC(=O)NC1c1ccc(OC(C)C)cc1 (stereo not shown) | -1.03%
35 | COc1ccccc1C(=O)Nc1cccc(NC(C)=O)c1 | 1.25%
36 | N=C1/C(=C\c2c[nH]c3ccccc23)C(=O)N=C2SC(N3CCCC3)=NN12 | 0.0579%
37 | C=CCN1C(=O)/C(=C\c2ccc(CC)cc2)C(C(=O)OC)=C1C | 1.91%
38 | O=S(=O)(Cc1ccccc1)c1nc2ccccc2n1CCOc1ccccc1 | -1.69%
39 | COc1ccc2[nH]c(C)c(C(C)=O)c2c1 | 1.38%
40 | COc1cc(CNC(=O)c2cccnc2SC)cc(OC)c1OC | 1.88%
41 | COC(=O)c1ccc2c(c1)C(C)(C)C(/C=C/c1ccccc1)=[N+]2C | 3.47%
42 | COC(=O)C1=C(C)N(C2CCCCC2)C(=O)/C1=C\c1ccc(Cl)c(Cl)c1 | 1.27%
43 | CCOC(=O)C1=C(C)N(c2ccc(OC)cc2)C(=O)/C1=C\c1ccc(OC)c(OC)c1 | -3.5%
44 | Cc1ccc(/C=C2/C(=O)ON=C2c2ccccc2)c(C)c1 | -6.93%

Row | SMILES | % Inhibition @ 10 uM
45 | COc1ccc(OC2=N/C(=C\c3ccco3)C(=O)N2c2ccccc2)cc1 | -7.25%
46 | Cc1cccc(C)c1NC(=O)c1c(Cl)cnn1C | 3.05%
47 | CCC(Oc1ccccc1)C(=O)Nc1nnc(S(=O)(=O)N(C)Cc2ccccc2)s1 (stereo not shown) | 3.36%
48 | COc1ccc(S(=O)(=O)NCCOc2ccccc2)cc1-n1cnnn1 | -0.403%
49 | CCN(CC)CCNC(=O)CS(=O)Cc1nc(-c2ccc(C)cc2)oc1C (stereo not shown) | 2.37%
50 | O=C(CSc1nn2cnnc2s1)N(C1CCCCC1)C1CCCCC1 | -5.41%
51 | Cn1ncc(C(=O)N2CCN(C3CCCCC3)CC2)c1C1CCN(C(=O)OC(C)(C)C)CC1 | 3.44%
52 | Cc1cc(C(=O)N2CCC(Cc3ccccc3)CC2)on1 | -3.45%
53 | CCCc1cc(O)n2nc(N3C(=O)c4ccccc4C3=O)nc2n1 | 0.401%
54 | N#CC1=C(N)Oc2cc(N)ccc2C1c1ccc(F)cc1F (stereo not shown) | 0.605%
55 | O=C(Nc1nc(-c2ccc(Br)cc2)cs1)c1ccc2c(c1)OCO2 | -3.71%
56 | Cc1c(Br)c(C(F)(F)F)nn1CC(=O)NCc1ccc(Cl)cc1 | -4.84%
57 | C(=C\CSc1nc[nH]n1)/CSc1nc[nH]n1 | 2.03%
58 | CC(C)(C)c1ccc(OCC(=O)Nc2ccc(S(=O)(=O)N3CCOCC3)cc2)cc1 | -3.95%
59 | Cc1cc(C)n2c(SCc3ccc(C(=O)c4ccccc4)cc3)nnc2n1 | 3.47%
60 | CCN(CC)C(=O)/C(=C/c1ccco1)NC(=O)c1ccc(Cl)cc1Cl | 0.317%
61 | CN1CCc2c1nc1ccccc1c2NC(=O)CN1CCCC1 | -2.51%
62 | COc1cccc(C(=O)Nc2ccc(Br)cc2C(=O)O)c1 | 2.79%
63 | Cc1cc(NC(=O)c2cc3ccccc3o2)no1 | -0.403%
64 | COc1ccc(C)cc1N(CC(=O)NC(C)C)S(=O)(=O)c1ccccc1 | -4.13%
